± gives the standard deviation of the averaged measurements. In all, about 4,000 sequences were measured (“arbitrary fluorescence units”: median about 830, highest 2% from about 6,500 on). This part holds few or none of the hits.
Target: RUNX1 (UniProt Q01196)
Assay: RUNX1 binding intensity (PBM fluorescence), RUNX1 alone (arbitrary fluorescence units); higher = stronger binding
Details: RUNX1 concentration 2 nM; ETS1 concentration 0 nM
Procedure: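 gcPBM on 36-bp genomic-derived probes (partner site mutated) containing one RUNX1 site and no ETS1 site. Recombinant human RUNX1 (2 nM) was incubated alone or with ETS1 (25 nM) and detected by anti-RUNX1 antibody fluorescence. Values are medians over 4 replicate spots (not normalised). The probes sit in constant array flanks that are not printed.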
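Note: Full-length recombinant human RUNX1 bound to double-stranded DNA microarray spots, detected with an Alexa488-labelled secondary antibody after the anti-RUNX1 primary, read as scanned spot fluorescence.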

UniProt Q01196, sequence (Q01196 whole entry): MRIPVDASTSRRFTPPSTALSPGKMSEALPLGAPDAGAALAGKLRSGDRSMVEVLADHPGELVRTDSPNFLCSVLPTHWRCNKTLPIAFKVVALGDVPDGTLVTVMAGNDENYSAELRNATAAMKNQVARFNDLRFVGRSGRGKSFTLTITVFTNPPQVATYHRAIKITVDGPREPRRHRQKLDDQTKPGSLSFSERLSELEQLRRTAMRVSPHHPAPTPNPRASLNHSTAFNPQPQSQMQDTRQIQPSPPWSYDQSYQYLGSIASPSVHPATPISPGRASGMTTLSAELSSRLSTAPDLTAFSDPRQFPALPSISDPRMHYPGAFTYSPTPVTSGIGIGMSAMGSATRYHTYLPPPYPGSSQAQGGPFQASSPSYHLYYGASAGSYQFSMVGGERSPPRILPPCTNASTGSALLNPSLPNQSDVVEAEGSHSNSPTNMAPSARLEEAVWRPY

Row | Sequence | RUNX1 binding intensity
1 | CCATGCGCTGCTGCCTTCCACTTACCGCCCTCGCAC | 1340
2 | GCCTTGCGGCCTCTAGGTGCGGGCCGATAACAAAAC | 696
3 | AGGCGCCTGAAAAACTACATCTCCCACAATCCTCGG | 869
4 | TCCAAACCACATGAAATAAGCAAGGGAGGTGGCAGC | 1340
5 | CACCTGCGAAAGTCACAGGGAAGCCACAGAGAGATG | 761
6 | AGCCTCCGAGTCTGTTGTGGAGTGGGAACCGCGACT | 807
7 | TGATTCCTGTGGCTACAAGGCTCCCGGGAGTGTCAG | 757
8 | AAGGTTGCGGCTCACAGAGGCCGAACGTCCTCCGGG | 785
9 | ATCACTCACCACAAAAGTCCCTTCACACTGCCTCCC | 3710
10 | CGGCCTAGGCTTGCTGGCGTTCCTGCGGGCCGCGGA | 716
11 | GCCACCTCTTTCTGTGTTGCAAACCACAGGTCCACC | 1800
12 | TTCAGAGCTCCGCAACAGGGAAGACAGGCAGTCCCG | 753
13 | GCACCCTTGCTGATTCCCACAGTGTGGTATAAGAGG | 780
14 | TTGCAGAAGGTCCGTCGCTGCGGCGCGCTGCGCACC | 662.4 ± 4.4
15 | ATGTCTTCATGTACAGGAACTGGGTCCCAGCCGCAG | 720
16 | CTACCACTACCGCCGCCGCCGCCTACATTCCGTAAA | 1650
17 | ATCGACTACCGCATCTGCAGACGTGCGCGGAGATGG | 756
18 | AGGCCACTGGGTCACCACAGGATCCGACTTCTCACA | 797
19 | GCACGGCTGAATTTCAAATGGGGTTTTGTGGTTTCT | 1340
20 | GCGGGCGTGCAGGCCGCAGATGAGGAATCAGACTAG | 749
21 | GGGCCGAAGGGGTTCGCACGCCAAGAACCGCCATGC | 722
22 | CAGCTGCTGTGGGTGGTGGTGGGCAGGGAGCCCTCC | 787
23 | GCGGGCGCACTGCGGGGGCCAAGGAACGAAGAAATG | 728
24 | GACGGAGGAGGTGTAGTTCTGTCTCCTTGCGGCCTC | 769
25 | GGGAAGAGGCGGTTGGGCTGCGCAAGGACGGGGCGC | 732

Row | Sequence | RUNX1 binding intensity
26 | GCTGCGGCGGCGGCGAAGAGACAACCTCCGCTGGAA | 793
27 | AGCTGCTTGCTGCATCTCAGGCCTTTCTGCGGCCTC | 692
28 | CTGCACAGCTGTGGTTGTGTAACGTCCCCCAGATGC | 735
29 | TCAGAGACTTTCGCTCAGCAGCAGCTGCGGCCAGGC | 644
30 | TAGAGGAGCAGCCGCAGACCAGACATACGGGTCCCT | 680
31 | ACCCTCTTTTCGGTGGAAAGCTGCGGCCTCCCAGAG | 805
32 | TTGCATGTGGTTTAGGCTGTAGTCTCCTCCTGTAGT | 1200
33 | GGTGGCCGCCTGAAGTGTGACCGCGGGAGGGGAGTG | 797
34 | TCCGCGGTGCCTCTAGGGGGCGGGGCTTACGGCTGG | 684
35 | AACCTGTGGGTGGGAGGTGAAGTGGAACGGTCCCGG | 793
36 | GCGCCCGAAACCGCTGGCCCGGCAACCCCGAAACGT | 1100
37 | GTTTTCAAGGCAGCAAGTGGCTGTGGTGGCACGGAG | 837
38 | GCGGGCGTGTGTGGGGGCGACGGCGTACGGGAGGCT | 843
39 | TGGTTCATGTGGGTGCACACAGCAAATGAGAGAACG | 748
40 | CCAAGCACTTGCTGCTGTTAGCTTTGTGGGCTGAGT | 775
41 | AGCTTTCTGTGGTGTAAACAGCAAGCGAGACCATGT | 788
42 | TGAAGTTGTGGGACGAAGCCAGCAAGTCAGCCCAGA | 694
43 | AATCCACCTGAAACACTTAGACGCCGCAACCCCAGT | 1100
44 | CCTGAGCGCCCGAAAGGAAGGCTGTGGTAGGTTGTC | 801
45 | AAGCTGGGTGTGGTCTCCTGGGCAGGGAGCCACCAA | 779
46 | TCTCCCTGCCCGCAAGTCAAAGCCACTGCCTTTTCC | 2570
47 | GCAGCAAGCGCGGACCTGGGGTTGCGGCGTCTAAGT | 718
48 | AGGGTTTGTGGGTTATCAGGCTTTGCTGCCATAAAC | 1090
49 | CAAGCCAGCAAGAGGGCCCTCACCAGAAACCGCACT | 1040
50 | CTCCTTGTGGGGCGCAGGGACATGAAGCAGGGTTTA | 734

Row | Sequence | RUNX1 binding intensity
51 | CAGGCCTTTGCTGCTATCGTTTGTGGTTTGAGCAGT | 1390
52 | GCGGGGCGGGGTACCGCGGAGTCATCATGGCAACCC | 868
53 | CTTCTCGCGGGAGCGGCACAAGCCGCAGTACAGCGC | 695
54 | CACCTCGGGGGTCTCCGGTCCGTGGTTAGCTCCTTC | 867
55 | CCCTGCTGGAACACGTGCGCCTGTGGTGACCCGGCA | 788
56 | ACCGAAACTGCGGCCCAGCAAAAAGGGAACTAGGGG | 858
57 | CAGGGCCCGGCATACGCGCCATGGACCGCGCAGCTT | 704
58 | AAGAACCCACATCAAAGGCTCCCAGCAAGCGCGAGC | 761
59 | ACAGCAAGTGTCTCTATAGAAACCAAACCACAGAAA | 994
60 | AGGAGGGGGAAACCACCAAAGCCAGGCAGTTACACA | 892
61 | GGCTTCTTGTGGGGTGATACAGGGGCTGCCTCGTCC | 877
62 | AAGAAAGGTTCCAGCCTGCGCCCTGCTACCGCGGCG | 738
63 | GGGTGAGTAGTTCCTCCTGCGGTGGGTCGGCATGTA | 738
64 | CCCCCTGAACATACGGGGCCTTTTAACCGCCCACGG | 910
65 | GCAGGTCCACCGCGCATGCCTGAAGAGGAGGCCCAG | 805
66 | GAGGAGGAGGTGCGCTGGCTGTTCTGCTGCGGGCCG | 704
67 | AAGCCCCGCAACAGCTCCCTTCCACCTGAAGCGTCC | 945
68 | GCGCGGTCTGGGGGTCCCCGGCGCATAGCCGGGTCT | 804
69 | GACCATGGAGCCGCAGCCGAGTCCCGTGTCCACTTC | 992
70 | GTAGGTGTGGTACGCCGCACCAGCAAATACTGAAAC | 682
71 | GGCGTGGTTTCGGCCCCGGCGCAGCTGGATCTGGCA | 692
72 | AGACGTGGTTACAAAGGTCCCAAGTTCAGGCAGTAA | 754
73 | CGGCGGCCGCTGCGGGAGCCACAGGCAGTGAAGAGC | 748
74 | ACCACCCACAGCCGTCTAACATCAATTCCTTCAGAG | 1100
75 | TGCAACCACAGGGGCGAAGAAGTCAGCAAATGCTGC | 746

Row | Sequence | RUNX1 binding intensity
76 | GTCACAGTAAAGAAGGAGCCTCGCCTTAACCGCACC | 1260
77 | AGGCGGCAGCAAATGACCCCATCCCGCAGCCTGGGC | 1040
78 | AACCCCAAAACGGAGACACCGGAGCCACAAGCTGAG | 810.4 ± 3.3
79 | ATTCTGCATCGTGTGCTCTTTCCATGAGACCACAAA | 793
80 | CGGGACCGCGGGCCGGAGTTTTGGCCGAAGAGGCCG | 714
81 | AGAAGGGCCACAACCGTCACGTGTTCCTCTTCAGCA | 847
82 | AGGTTGGGGGAAACCACTAAGAGGACGCAGGGTTAG | 972
83 | CACTGGCAAGGTGGTTTGAGAACTCCCTCTTTCATC | 1040
84 | ACTACAATTCCCGGCAGGGACTGCGGCCCAGCGTAC | 1290
85 | AGGGTTGCGGCAGAGCCATGGACTCCCGGTCCCTGC | 744
86 | GCAGGCTCGAGCGGTCAAAGCTCTTTCAGGGGGCCC | 765
87 | GGAGAGCTCCTGCGGTCCAGCCGGCTGACTGATGAG | 1000
88 | GGGCTATTGTCTCCCCCCCCATGTGACCACAGCCTC | 1020
89 | GATGTGGCTTGCCAAAAAAAAGCATAGCCTTGGGTG | 726
90 | AAGACCGGCCGCAAACCAGCAAGATGGCGTACGGCC | 817
91 | TGGGCCGGGGAGCAAGGCGGCTCGCGGTTCCTCCAC | 672
92 | AGAACCACCTCCTCTCAGTAAACCACAGAGACTGTA | 1410
93 | CAAGTGTACATGTGGTTATAACTTGCTGTGCTGCCT | 853
94 | GTGGCTTTGTGGTTCCTTGTTGCCTGGGCTGGTCTG | 1700
95 | ATAGGAATGCTGGATCCCCACCGCTGGCCAGCACAG | 724
96 | TATTGCCTGTGCACAGAAGCAGCTGGGCCGCAGAGT | 700
97 | GTGCCGAAACCACCTCTTTCTTTGCTGCCTTCCTCC | 1590
98 | TAGGCTCCCGCGGTTCGGCCTTGCTCCCTCTGTGAC | 763
99 | GAGGCAGTGGGTTTACTGTGTAGTTCCTTCTCTGGT | 769
100 | CAACCCAAGGGGATCTGCTCACTGCGGTGAGGAGGC | 737

Row | Sequence | RUNX1 binding intensity
101 | CATGTGGTTATCTCATCGTTTTAAAGGAGGTGGGGA | 879
102 | GCTCTGCAGCATGTGGCTGTGACCGCAGTGAGGAGC | 1580
103 | TGTTGACTCAGAAAGATGATGGCTGTGGGGGCTGCA | 755
104 | GCCAGCCACAGACACCCTGTGCAGCTTGCTCCTTCG | 926
105 | CCGCCTCCAGAAGAATTCTCTGCGGGCATGTTGCTG | 871
106 | AGAAGCTGCGGCCGCCCCCGATTCCTCTCTTCCTCC | 1020
107 | GGCGGGGCGCGGCCGCAGCTCCGTTTCAGGTGGCTC | 760
108 | GGGGTCCGCGGTGGCTGCCGCATTCGGTTTAGGGGC | 711
109 | TATCAGGCAGGCTGCCTTCAAGACCGCTGTTTTTGC | 722
110 | TCTACATACCACACATGTGAACCTCCGCCCCGCCAC | 1160 ± 82
111 | CGTTTACTGTCTGGGACTGCGCCCACGCGGTCACGT | 871
112 | GGGCAGCATCGTGTGCCTGCTTCTCTTACCCACATC | 817
113 | TGCTTGCCGTCCGTGTCGCGGCCCTGCGGTTGGCGG | 902
114 | TGAGCCCTACTTTCGGTGGTGCTGTGGTCTGCCCCT | 794
115 | TGGGCAGCAAGTGGTATCTGATTGTGGTTTTGATTT | 1840
116 | TGCGTGGTTGTCCCAGGCAGTCCCCTGAAAGCAAGG | 697
117 | CATAGTGGATCTGCGGGTTAGAGGAGATAGGCTGCA | 994
118 | CGGAGGCGGCCGGGAGTAGCGCTGCGGTTGGCAGCT | 921
119 | CCCAGGGCTGTGGGCTCCTGAGCCAGGCAATGGGTC | 676
120 | GAAGGAGCTAACCACGGACCGGAGACCCCCGAGGTG | 832
121 | TCCCGCTGCGGCCAACAGCCGGGCCACTTTCGGGGC | 822
122 | GTTTGGGGATTTGTGGTGTCAGGAATCACTTAAGAT | 935
123 | GGCGGGAGAGGAGGCCGGGCGGCCGCAGCTGCCTGT | 669
124 | ATTACAGGCAGTATGTCCTCCTCTGCCTAACCACTG | 928
125 | CACCCTCACGGAGACAGCTGTGTGTAACCACCTCCA | 952

— the supplement of paper PMC10681739
